Measurements reported in PubChem BioAssay AID588855 (National Center for Advancing Translational Sciences (NCATS), 2011).
The campaign covered roughly 410,000 compounds. About 5,000 (1.2%) were called active. This list was built around the results that the source calls inconclusive (neither active nor inactive); the mix of calls is not that of the screen. Calls follow the shape of the dose curve; as a rule, active = well fitted inhibition curve with a large enough effect; inconclusive = small, poorly fitted or top-dose-only effect; inactive = no such curve, though single readings can be large or run the other way. A potency beside an inconclusive call is a rough fit, not a confirmed value. Some structures have more than one record in an assay (separate samples or runs), and their calls can disagree.

assay: qHTS for Inhibitors of TGF-b; conditions: HepG2 CAGA-GFP TGF-b/SMAD3 reporter, GFP fluorescence, 18 h, TGF-beta stimulated, 500 pg/mL final; series mostly up to 46.1 µM; activity, negative = inhibition: at the top concentration; also: nearly all actives have a fitted effect of over 65% in size
Outline: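 HEPG2 CAGA-GFP cells (1000/well, DMEM with 1% FBS) were pre-incubated 2 h at 37 degrees C, given compound by pin tool, then stimulated with TGF-beta at 500 pg/mL final for 18 h before per-cell GFP fluorescence imaging.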
% is scaled to controls: 0 for no effect and ±100 for the full control effect; potency is read from the fitted curve at half-maximal effect; tags tell the direction and shape of the fitted curve.

Structure (SMILES)	activity, negative = inhibition	Potency
Cc1ccc([N+](=O)[O-])cc1NC(=O)c1ccoc1C	inactive: -8.95%	
CC1CCN(C(=O)CSCC(=O)Nc2nc(-c3cccs3)cs2)CC1		inconclusive: 20 µM [inhibitor, single point]
COc1ccc(NC(=O)COc2ccc(N(C)S(=O)(=O)c3ccc(Cl)cc3)cc2)cc1	inactive: -5.71%	
Cc1ccccc1NC(=O)c1c(C)oc2ccc(O)c(CN3CCCCCC3)c12		inconclusive: 35.5 µM [inhibitor, single point]
COc1ccc(C)cc1NC(=O)CN(C)S(=O)(=O)c1ccc2c(c1)c(=O)n(C)c(=O)n2C		inconclusive: 11.2 µM [inhibitor, single point]
Cc1cc(C)c[n+](CC(=O)c2ccc(-c3ccccc3)cc2)c1		inconclusive: 15.8 µM [inhibitor, single point]
O=C(O)c1c2c(nc3ccccc13)/C(=C/c1cccc([N+](=O)[O-])c1)CCC2	inactive: 19.5%	
COC(=O)c1ccc(CN2CCN(C3CCCC3)C(CCO)C2)cc1 (stereo not drawn)		inconclusive: 2.82 µM [inhibitor, partial curve, poor fit]
CCN(CC)C(=O)C(=O)c1cn(CCOc2ccccc2)c2ccccc12		inconclusive: 25.1 µM [inhibitor, single point]
Cc1ccc(NCCC(=O)c2cccc([N+](=O)[O-])c2)c(C)c1		inconclusive: 17.8 µM [inhibitor, single point]
Cn1c(=O)c2cc(NC(=O)NCCc3ccccc3)ccc2n1Cc1ccc(F)cc1	inactive: -24.8%	
CCNC(=S)N/N=C(\C)c1cccc(C(F)(F)F)c1	inactive: 2.64%	
OCC1OC(n2cnc3c(=S)nc[nH]c32)C(O)C1O (stereo not drawn)		active: 10 µM
CCOc1ccc(C(=O)CN2CCN(S(=O)(=O)c3ccc(Br)cc3)CC2)cc1		inconclusive: 12.6 µM [inhibitor, partial curve, poor fit]
CC(C)c1cc(NC(=O)CSc2nnc(-c3ccccc3F)n2C)on1	inactive: -9.19%	
CCN(CC)CCC(=O)Nc1cccc2c1C(=O)c1ccccc1C2=O		inconclusive: 17.8 µM [inhibitor, partial curve, poor fit]
COc1cccc(NC(=O)CCC2CCN(C(=O)c3sccc3C)CC2)c1	inactive: -0.244%	
Cc1ccc(-c2nc3sc(CCNC(=O)c4ccc(F)c(F)c4)c(C)n3n2)cc1	inactive: -29.2%	
O=c1c2ccccc2nc(SCc2ccc([N+](=O)[O-])cc2)n1CCCO	inactive: -16.6%	
O=C(C1CCN(S(=O)(=O)c2cccs2)CC1)N1CCN(c2ccccc2F)CC1		inconclusive: 17.8 µM [inhibitor, single point]
O=C(CCCCCn1c(=O)[nH]c2ccccc2c1=O)N1CCN(c2cccc(C(F)(F)F)c2)CC1		inconclusive: 0.112 µM [inhibitor, full curve, poor fit]
COC(=O)Cn1c(C)nc([N+](=O)[O-])c1Br		inconclusive: 1.26 µM [inhibitor, full curve, poor fit]
Nc1ccc2nc(-c3ccc(N)c(Cl)c3)[nH]c2c1		inconclusive: 11.2 µM [inhibitor, single point]

Structure (SMILES)	activity, negative = inhibition	Potency
COc1ccccc1NC(=O)c1cc(Sc2nncn2C)nc2ccccc12		inconclusive: 0.447 µM [inhibitor, full curve, poor fit]
Cc1ccc(/C=N/Nc2ccccn2)s1		inconclusive: 28.2 µM [inhibitor, single point]
CCOC(=O)c1ccc(NC(=O)Cc2noc3ccc(C)cc23)cc1		inconclusive: 31.6 µM [inhibitor, single point]
COc1cccc(NC(=O)CCC(=O)Nc2cc(OC)c(NC(=O)c3cccs3)cc2OC)c1		inconclusive: 7.08 µM [inhibitor, partial curve, poor fit]
COc1ccc(OCCNC(=O)C2(C)CCN2Cc2ccc(SC)cc2)cc1 (stereo not drawn)		inconclusive: 35.5 µM [inhibitor, single point]
O=C1NCC(COc2cccc3ccccc23)O1 (stereo not drawn)		inconclusive: 35.5 µM [inhibitor, single point]
CCn1cc2nc(SCc3cc(C)ccc3C)n(Cc3ccc(Cl)cc3)c(=O)c2n1		inconclusive: 3.55 µM [inhibitor, partial curve, poor fit]
O=C(O)C1C2CCCCC2=C2CCCCC2C1C(=O)c1ccccc1 (stereo not drawn)	inactive: -8.27%	
Cn1c(=O)c2c(nc(NCc3ccco3)n2CCc2ccccc2)n(C)c1=O		inconclusive: 35.5 µM [inhibitor, single point]
COc1cc(C(=O)N/N=C(\C)c2ccc3c(c2)OCO3)cc(OC)c1OC		inconclusive: 3.98 µM [inhibitor, full curve, poor fit]
CCCc1cc(=O)[nH]c(Nc2cc(Cl)cc(Cl)c2)n1		inconclusive: 3.98 µM [inhibitor, full curve, poor fit]
O=C(NCCc1ccccc1)C1CCC(=O)N(Cc2cccc(C(F)(F)F)c2)C1 (stereo not drawn)		inconclusive: 35.5 µM [inhibitor, single point]
CCOc1ccc2nc(NC3=NC(c4ccc(OC)cc4)CC(=O)N3)nc(C)c2c1 (stereo not drawn)		inconclusive: 15.8 µM [inhibitor, single point]
COc1ccc(CN(C)CC(=O)Nc2ccccc2-c2ccccc2)c(OC)c1		inconclusive: 35.5 µM [inhibitor, single point]
CCOC(=O)CSC1=NC(=O)/C(=C/c2ccc(OC)cc2)S1		inconclusive: 25.1 µM [inhibitor, single point]
CC(C)c1ccc(C2CC(=O)N3CN(C4CCCCC4)CSC3=C2C#N)cc1 (stereo not drawn)		inconclusive: 35.5 µM [inhibitor, single point]
CCCCN(CCCC)CCCNC(=O)c1cc(-c2ccc(Cl)s2)nc2ccccc12		inconclusive: 8.91 µM [inhibitor, partial curve, poor fit]
Cn1ccc2cc(S(=O)(=O)N3CCCC(C(=O)NCc4ccccc4F)C3)ccc21 (stereo not drawn)		inconclusive: 10 µM [inhibitor, partial curve, poor fit]
CC1CN(CCCCOc2ccc(F)cc2)CC(C)O1 (stereo not drawn)	inactive: 10.8%	
COc1ccc(C(=O)N/N=C(/C)c2cccc(NC(=O)c3ccccc3F)c2)cc1	inactive: 11.6%	
CCN(CC)C(=S)Nc1ccc([N+](=O)[O-])cc1		inconclusive: 20 µM [inhibitor, single point]
COc1ccc(-c2nc3cnccn3c2NC2CCCCC2)cc1-c1cccc(Cl)c1		inconclusive: 15.8 µM [inhibitor, single point]
Cc1cccc(Oc2ccc(NC(=O)C3CC=CCC3C(=O)O)cc2)c1 (stereo not drawn)	inactive: 5.4%	

Structure (SMILES)	activity, negative = inhibition	Potency
C=CCCC(=O)N1CCCC(C(=O)c2cccc(OC)c2)C1 (stereo not drawn)	inactive: -1.34%	
CCOC(=O)c1oc2ccc(OC)cc2c1NC(=O)CN1CCN(C)CC1	inactive: 0%	
CCOC(=O)c1c(C)[nH]c(C)c1C(=O)COC(=O)/C=C/c1cccc(Cl)c1		inconclusive: 22.4 µM [inhibitor, single point]
CCCCC(O)(c1ccc(CC)cc1)C(CN1CCOCC1)c1ccccc1 (stereo not drawn)		inconclusive: 22.4 µM [inhibitor, single point]
COC(=O)CSc1cnc2ccccc2n1		inconclusive: 3.16 µM [inhibitor, single point]
O=C(COc1ccccc1-c1ccccc1)NN=C1CCCC1		inconclusive: 22.4 µM [inhibitor, single point]
Cc1cccc(-n2c3nc(=O)[nH]c(=O)c-3cc3ccc(Cl)cc32)c1C	inactive: 4.92%	
COc1cc(OC)c2ccc(=O)oc2c1C(CC(=O)N1CCCC(C)C1)c1ccc2c(c1)OCO2 (stereo not drawn)	inactive: -12.5%	
Cc1ccc(S(=O)(=O)NCCC(=O)NNC(=O)COc2ccccc2Cl)cc1C		inconclusive: 11.2 µM [inhibitor, single point]
O=C(CSc1nc2c([nH]c3ccccc32)c(=O)n1-c1ccccc1)N1CCCCC1	inactive: -23.3%	
Cc1nc2c(-c3ccc(F)cc3)c(C)nn2c(C)c1CCC(=O)NCc1ccc(F)cc1	inactive: -4.67%	
N#Cc1cccc(S(=O)(=O)NCC(=O)OCC(=O)c2ccc[nH]2)c1		inconclusive: 15.8 µM [inhibitor, single point]
COc1ccc(OCCCn2c(C3CC(=O)N(c4ccc(F)cc4)C3)nc3ccccc32)cc1 (stereo not drawn)		inconclusive: 20 µM [inhibitor, single point]
O=C(CSc1nnc2c(n1)[nH]c1ccccc12)Nc1ccc(S(=O)(=O)Nc2ncccn2)cc1	inactive: -1.72%	
CCOC(=O)c1c(C)[nH]c(CCC(=O)NCc2ccc(OC)cc2OC)c1C	inactive: -33.6%	
Cc1c(CC(=O)NCCc2ccccc2)c(=O)oc2c(C)c3occ(C(C)(C)C)c3cc12		inconclusive: 7.94 µM [inhibitor, partial curve, poor fit]
COCCCn1c(SCc2nnc(-c3ccc(OC)c(OC)c3)o2)nnc1-c1ccncc1		inconclusive: 6.31 µM [inhibitor, single point]
O=C(CSc1nnc(-c2ccc(Cl)cc2)n1Cc1ccco1)NCc1ccc2c(c1)OCO2		inconclusive: 15.8 µM [inhibitor, single point]
O=C(CN1C(=O)c2ccc([N+](=O)[O-])cc2C1=O)Nc1ccccc1N1CCCC1		inconclusive: 1.41 µM [inhibitor, partial curve]
CN1CCN(CCCNC(=O)c2ccc(/C=C3\Sc4ccccc4N(Cc4ccccc4F)C3=O)cc2)CC1		inconclusive: 22.4 µM [inhibitor, single point]
N#CCSc1nc2c(c(C3CC=CCC3)c1C#N)CCC2 (stereo not drawn)		inconclusive: 20 µM [inhibitor, single point]
Cc1cccc2nc(CSc3nc4ccc([N+](=O)[O-])cc4[nH]3)c(Br)n12		inconclusive: 22.4 µM [inhibitor, single point]
